# Measured values: publication PMC4336329 (PLoS ONE, 2015)
# About 14,000 (4.5%) of roughly 310,000 compounds showed an effect of 50% or more. The effect is printed as a negative number. The list shows a part of the results.
# Target: human ether-à-go-go-related gene (hERG) potassium channel (human, UniProt Q12809)
# Assay: primary screen, population patch clamp on CHO cells stably expressing hERG
# 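Also: peak tail current of the secondary pulse compared with the same well before compound.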
# Chain of human ether-à-go-go-related gene (hERG) potassium channel (Q12809 whole entry, looked up): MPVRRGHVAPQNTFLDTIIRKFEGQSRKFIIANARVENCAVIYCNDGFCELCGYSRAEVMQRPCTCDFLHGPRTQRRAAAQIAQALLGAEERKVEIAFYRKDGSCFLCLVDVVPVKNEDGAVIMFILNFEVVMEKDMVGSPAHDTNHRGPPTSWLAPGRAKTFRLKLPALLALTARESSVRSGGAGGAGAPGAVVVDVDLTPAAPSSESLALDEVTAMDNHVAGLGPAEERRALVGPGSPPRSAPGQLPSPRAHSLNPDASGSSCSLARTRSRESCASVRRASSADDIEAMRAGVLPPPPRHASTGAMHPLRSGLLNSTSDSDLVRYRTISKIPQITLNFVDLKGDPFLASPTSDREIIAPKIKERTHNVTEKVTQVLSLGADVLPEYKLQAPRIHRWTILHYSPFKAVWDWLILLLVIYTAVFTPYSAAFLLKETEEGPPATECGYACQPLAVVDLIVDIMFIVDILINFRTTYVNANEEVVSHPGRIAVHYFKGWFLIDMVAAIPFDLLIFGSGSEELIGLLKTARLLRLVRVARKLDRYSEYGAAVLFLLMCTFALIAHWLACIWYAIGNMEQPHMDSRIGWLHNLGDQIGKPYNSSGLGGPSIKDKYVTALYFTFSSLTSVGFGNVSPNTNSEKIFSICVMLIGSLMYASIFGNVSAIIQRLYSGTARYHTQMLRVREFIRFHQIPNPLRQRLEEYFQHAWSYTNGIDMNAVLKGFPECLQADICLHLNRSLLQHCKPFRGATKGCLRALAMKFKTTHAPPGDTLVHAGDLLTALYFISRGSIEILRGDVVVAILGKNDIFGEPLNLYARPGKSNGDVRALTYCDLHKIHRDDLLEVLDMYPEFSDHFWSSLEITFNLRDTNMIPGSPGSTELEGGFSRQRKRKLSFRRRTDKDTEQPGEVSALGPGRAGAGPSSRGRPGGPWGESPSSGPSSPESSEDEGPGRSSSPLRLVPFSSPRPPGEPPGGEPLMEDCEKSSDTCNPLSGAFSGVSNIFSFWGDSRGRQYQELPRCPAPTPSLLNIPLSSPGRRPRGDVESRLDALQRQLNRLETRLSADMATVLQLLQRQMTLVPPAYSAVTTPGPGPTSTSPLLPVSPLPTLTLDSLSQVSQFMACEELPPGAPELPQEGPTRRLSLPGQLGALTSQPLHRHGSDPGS
row,SMILES,"hERG current change (%, negative = inhibition) at 10uM [%]"
1,Cc1csc(NC(=O)c2ccc(C)s2)n1,6.99
2,O=C(NCc1ccccc1Cl)/C(=C\c1cccnc1)NC(=O)c1ccccc1,-48.7
3,CCCCNC(=O)c1onc(CSc2ccc(Cl)cc2)c1C(=O)O,-4.94
4,O=C(NCc1ccco1)/C(=C\c1ccco1)NC(=O)c1cccs1,-14.8
5,N#CCC(N)=C(C#N)C#N,-1.83
6,CCN1CCN(Cc2c(O)ccc3c(=O)c(-c4ccc(OC)c(OC)c4)c(C(F)(F)F)oc23)CC1,-2.47
7,CCOC(=O)Cc1csc(NC(=O)c2ccoc2C)n1,-2.79
8,N#Cc1ccc(OCC(=O)N2CCN(C(=O)c3ccco3)CC2)cc1,-71
9,Cl.c1ccc(C2CN3CCSC3=N2)cc1 (centres unmarked),12
10,CCOc1ccc(N2C(=O)CC(NCCNc3ccc([N+](=O)[O-])cn3)C2=O)cc1 (centres unmarked),-77.5
11,S=C(Nc1ccccc1)c1ccccn1,6.46
12,O=c1[nH]c(C2CCN(S(=O)(=O)c3ccccc3)CC2)nc2c1nnn2Cc1cccc(Cl)c1,-2.4
13,COc1ccc(CNC(=S)Nc2cccc(Cl)c2)cc1,10.4
14,CCOc1ccc(OCCC(=O)Nc2ccc(F)cc2C)cc1,21.2
15,CC(=O)c1cccc(NC(=O)c2ccc(S(=O)(=O)N3CCCCC3)cc2)c1,1.77
16,O=C(c1ccoc1)N1CCCC(N2CCN(c3ccc(F)cc3)CC2)C1 (centres unmarked),-48.1
17,COc1ccc(C(=O)O)cc1S(=O)(=O)NCc1ccccn1,12.5
18,CCn1c2ccccc2c2cc(N=C3SC(CC(=O)Nc4ccccc4)C(=O)N3C)ccc21 (centres unmarked),15.8
19,CCN(Cc1cnn(C)c1)C(=O)c1ccc(OC2CCN(S(=O)(=O)N(C)C)CC2)cc1,19.1
20,Cc1ccc(C)n1CCN1CCN(CC(=O)Nc2ccc(S(N)(=O)=O)cc2)CC1,-12.2
21,Cc1ccc(OCC(=O)c2c[nH]c3ccccc23)c([N+](=O)[O-])n1,24.4
22,COc1ccc(OC)c(CNc2ccc3c(c2)nc(C)n3C)c1,-68.4
23,O=C(CSC1=NCCS1)Nc1cccc(F)c1,-7.23

row,SMILES,"hERG current change (%, negative = inhibition) at 10uM [%]"
1,CC(C)C[C@H](NC(=O)OC(C)(C)C)c1n[nH]c(=S)n1N,16.4
2,O=C(NN=C1CCCC1)c1cccc(O)c1,8.96
3,Cc1nc(N(C)C)c2sc(=S)n(-c3ccccc3)c2n1,20.6
4,CCN(c1ccc(C(O)(C(=O)OC)C(F)(F)F)cc1)S(=O)(=O)c1ccc(C)cc1 (centres unmarked),-35.1
5,COc1ccc(Cl)cc1NC(=O)COC(=O)CNC(=O)c1ccc([N+](=O)[O-])c(C)c1,14.9
6,C=CCn1c(SC(C)CC)nc(O)cc1=O (centres unmarked),20.1
7,CCN(CC)S(=O)(=O)c1ccc(N2CCCC2)c(NC(=O)c2nn(C)c(=O)c3ccccc23)c1,-23
8,Cc1onc(-c2c(F)cccc2Cl)c1C(=O)NC1=NCCS1,0.818
9,Cc1c(C#N)c2ncnc(-c3ccccc3)c2n1-c1ccccc1,-11.3
10,CC(CN1CCCCC1)NC(=O)c1cc(-c2ccccn2)nc2ccc(Cl)cc12 (centres unmarked),-21.8
11,COc1ccc2nc(C)cc(N3CC(C)OC(C)C3)c2c1 (centres unmarked),-49.6
12,CC(=O)N(c1ccccc1Cl)S(=O)(=O)c1ccc(Cl)cc1,27.9
13,O=c1c2cc(Br)ccc2nc(-c2ccccc2)n1O,31.8
14,O=C(O)CCCn1nc(-c2ccccc2)c2ccccc21,6.36
15,C/C(=N\NC(=S)Nc1ccccc1)C1Cc2ccccc2C(=O)O1 (centres unmarked),-24.3
16,Cn1cc(C(=O)c2ccc(Cl)cc2Cl)cc1C(=O)O,20.5
17,O=C(O)c1cc2ccccc2cc1Nc1ccccc1,1.59
18,CC(C)CC(c1nnnn1CC1CCCO1)N1CCN(Cc2ccc3c(c2)OCO3)CC1.Cl (centres unmarked),-11
19,CSc1ccc(CNc2nnnn2C)cc1,-11.3
20,CCOC(=O)C1C(c2ccc(O)c(O)c2)NC(=S)NC1(O)C(F)(F)F (centres unmarked),-4.33
21,Cc1ccccc1Cn1cc(NC(=O)c2cc(-c3ccco3)on2)cn1,15.4
22,CN(C1CCS(=O)(=O)C1)S(=O)(=O)c1cccs1 (centres unmarked),-51.6
23,CCOC(=O)Nc1cccc(NC(=O)c2cc(OC)cc(OC)c2)c1,-53.7

row,SMILES,"hERG current change (%, negative = inhibition) at 10uM [%]"
1,CCN(CC)CCOC(=O)c1ccc(NC(=O)CCNC(=O)Cn2ccc3ccccc3c2=O)cc1,11.8
2,Fc1ccc(/C=N/Nc2ccccn2)cc1,-2.11
3,Cc1nc([N+](=O)[O-])c(SCC(O)CCl)n1Cc1ccc(Cl)cc1 (centres unmarked),-59.9
4,C=C1C(=O)O[C@@H]2[C@H]1[C@@H](OC(=O)/C(C)=C/C)C/C(C)=C\C(=O)/C=C(\C)[C@@H]2O,8.42
5,COC(=O)CSc1nnc(-c2ccc(S(=O)(=O)N3CCCC3)cc2)n1C,13.3
6,CCOC(=O)C1CCN(S(=O)(=O)c2ccc(CNC(=O)c3ccccc3)s2)CC1,-50.3
7,CC(N=Cc1nc(-c2ccccc2)oc1O)c1ccccc1 (centres unmarked),-10.7
8,Cc1ccc(C)c(Cn2c(C(=O)OC(C)C)cc3c2ccn3C)c1,-6.5
9,CCN1C(=O)[C@@H]2[C@@H](c3ccc(-c4ccc(OC)cc4)c(OC)c3)N3CCCC[C@@]3(C(=O)OC)[C@@H]2C1=O.O=C(O)C(F)(F)F,10.6
10,COc1cc(NC(=O)CC(C)n2ccnc2)cc(OC)c1 (centres unmarked),10.7
11,CNc1nc(C)c(C#N)cc1C(C)=O,2.47
12,CCOC(=O)N1CCC(Nc2c(N3CCN(c4cccc(C(F)(F)F)c4)CC3)c(=O)c2=O)CC1,-76.8
13,CC(=O)Nc1cccc(NC(=O)c2ccccc2OCc2ccccc2)c1,13.5
14,Cc1sc(NC(=O)c2ccco2)c(CN2CCN(c3ccc(F)cc3)CC2)c1C,12.7
15,N#C/C(=C\c1ccc(Br)s1)C(=O)N1CCN(c2ccccc2)CC1,-12.3
16,COc1ccc(CCNC(=O)CSc2nc(C)cc(C)n2)cc1OC,9.5
17,CCN(CC(=O)NCc1cccnc1)S(=O)(=O)c1ccc(OC)cc1,-28.3
18,COc1ccc(C2(CNS(=O)(=O)c3ccccc3)CCOCC2)cc1,-4.62
19,Cc1cccc(NC(=S)N/N=C(\c2ccccc2)C(C)C)c1,-1.5
20,COc1cc(Cl)c(C)cc1NC(C)C(=O)Nc1cc(C(F)(F)F)ccc1N1CCOCC1 (centres unmarked),-2.59
21,COc1cccc2cc(-c3cn4cccc(C)c4n3)c(=O)oc12,17.5
22,COc1ccc(Cl)cc1NC(=O)C(C)Sc1n[nH]c(N)n1 (centres unmarked),3.42
23,CSc1nsc(SC)c1NC(=O)N1CCCCC1,2.74

row,SMILES,"hERG current change (%, negative = inhibition) at 10uM [%]"
1,Cc1ccc(S(=O)(=O)Nc2ccccc2C(N)=O)cc1,2.71
2,C/C(=C\C(=O)c1c(O)cc(C)oc1=O)N(C)C,15.4
3,COC(=O)c1cc2c(-c3ccccc3)c(C)c3ccccn3c-2c1C(=O)OC,15.5
4,Cc1cccc(NC(=O)c2ccc(Cl)c(S(=O)(=O)N3CCCCC3)c2)n1,-71.3
5,CCC(C)NS(=O)(=O)c1ccc(OCC(=O)Nc2ccc3c(c2)OCCO3)cc1 (centres unmarked),-26.3
6,Cc1ccc(S(=O)(=O)N(C)C)cc1NC(=O)COC(=O)/C=C/c1ccc(F)cc1,-4.42
7,CCCCCCCCCCCCCCCC(O)C(N)CO (centres unmarked),1.57
8,C=CCN1C(=O)CSc2ccc(C(=O)NCCC3=CCCCC3)cc21,-27.6
9,COc1ccc(C)c2sc(=NC(=O)c3ccc(C(C)=O)cc3)n(C)c12,8.45
10,COc1ccc(C(C(=O)NC2CCCC2)N(Cc2cccs2)C(=O)c2ccn[nH]2)cc1OC (centres unmarked),20.3
11,O=C(CCCc1ccccc1)c1ccccc1,18.5
12,COc1ccc(N2CCN(Cc3cc(=O)oc4ccc(C)cc34)CC2)cc1,2.14
13,CS(=O)(=O)N(Cc1ccccc1)c1ccc(C(=O)NC2CCCCC2O)cc1 (centres unmarked),-9.19
14,O=C(NCc1ccc2c(c1)OCO2)c1cc(-c2ccccc2)c(N2CCOCC2)s1,-0.82
15,Cc1cc(C(=O)N2CCN(S(=O)(=O)c3ccccc3)CC2)c(C)o1,5.6
16,Cc1cccc(-c2nn(-c3ccccc3)cc2C(=O)N(C)CC(=O)Nc2ccc(N3CCOCC3)cc2)c1,24.2
17,O=c1cc(CSc2nnc(COc3ccc(Cl)cc3)o2)c2ccccc2[nH]1,-9.67
18,Cc1ccc(S(=O)(=O)Nn2c(O)c(C=C3N=c4ccccc4=N3)sc2=S)cc1,3.52
19,Cc1onc(-c2ccccc2Cl)c1C(=O)NC(C)c1ccccc1 (centres unmarked),-4.38
20,CCc1nc2ccc(C(=O)N3CCN(c4cccc(OC)c4)CC3)cc2nc1CC,-8.19
